Source: a collection of fitness landscapes (doi:10.1126/science.1257360)
Some of the results follow.

B1: PhoQ; a variant is named by its letters at X, in order, P23837 (parent)
chain: MKKLLRLFFPLSLRVRFLLATAAVVLVLSLAYGMVALIGYSVSFDKTTFRLLRGESNLFYTLAKWENNKLHVELPENIDKQSPTMTLIYDENGQLLWAQRDVPWLMKMIQPDWLKSNGFHEIEADVNDTSLLLSGDHSIQQQLQEVREDDDDAEMTHSVAVNVYPATSRMPKLTIVVVDTIPVELKSSYMVWSWFIYVLSANLLLVIPLLWVAAWWSLRPIEALAKEVRELEEHNRELLNPATTRELTSLVRNLNRLLKSERERYDKYRTTLTDLTHSLKTPLXXLQXXLRSLRSEKMSVSDAEPVMLEQISRISQQIGYYLHRASMRGGTLLSRELHPVAPLLDNLTSALNKVYQRKGVNISLDISPEISFVGEQNDFVEVMGNVLDNACKYCLEFVEISARQTDEHLYIVVEDDGPGIPLSKREVIFDRGQRVDTLRPGQGVGLAVAREITEQYEGKIVAGESMLGGARMEVIFGRQHSAPKDE

Variants of: B1
Test: enrichment ratio after two sorts for PhoP signalling (ratio (wild type AVST 3.29)); higher = more functional
Conditions: with PhoP (E. coli)

| Variant | enrichment ratio |
| --- | --- |
| FWIT | ≤ 0.25 |
| ETPN | ≤ 0.25 |
| ALTG | 3.18 |
| GCDD | ≤ 0.25 |
| FFPT | ≤ 0.25 |
| SWKS | ≤ 0.25 |
| LDPW | ≤ 0.25 |
| FVIF | ≤ 0.25 |
| TYFD | ≤ 0.25 |
| DQHR | ≤ 0.25 |
| GLAY | ≤ 0.25 |
| ISSI | ≤ 0.25 |
| GWSS | ≤ 0.25 |
| IQCF | ≤ 0.25 |
| EGMS | ≤ 0.25 |
| DSWE | ≤ 0.25 |
| FYHQ | ≤ 0.25 |
| VVKH | ≤ 0.25 |
| LEER | ≤ 0.25 |
| LHDS | ≤ 0.25 |
| ITMW | ≤ 0.25 |

| Variant | enrichment ratio |
| --- | --- |
| MNAD | ≤ 0.25 |
| MPWT | ≤ 0.25 |
| PHDW | ≤ 0.25 |
| SAFN | ≤ 0.25 |
| NMDA | ≤ 0.25 |
| SPWR | ≤ 0.25 |
| SMSP | ≤ 0.25 |
| KMFT | ≤ 0.25 |
| MCIA | ≤ 0.25 |
| DNAT | ≤ 0.25 |
| MYKY | ≤ 0.25 |
| MSMG | 2.86 |
| DGTH | ≤ 0.25 |
| FKNP | ≤ 0.25 |
| GKVY | ≤ 0.25 |
| TVFF | 1.69 |
| KYKN | ≤ 0.25 |
| TYYG | ≤ 0.25 |
| FYHH | ≤ 0.25 |
| SENS | 3.56 |
| ARAN | ≤ 0.25 |

| Variant | enrichment ratio |
| --- | --- |
| IHAD | ≤ 0.25 |
| AKNL | ≤ 0.25 |
| FRYW | ≤ 0.25 |
| WVTC | ≤ 0.25 |
| VERD | ≤ 0.25 |
| PKHM | ≤ 0.25 |
| DGCC | ≤ 0.25 |
| DVVL | ≤ 0.25 |
| GKQY | ≤ 0.25 |
| TGDK | ≤ 0.25 |
| MKFY | ≤ 0.25 |
| KYTK | ≤ 0.25 |
| AAGF | 0.706 |
| IIDG | ≤ 0.25 |
| MHNE | ≤ 0.25 |
| QKIL | ≤ 0.25 |
| FVVS | ≤ 0.25 |
| MQPC | ≤ 0.25 |
| NDGY | ≤ 0.25 |
| DQDN | ≤ 0.25 |
| YPGY | ≤ 0.25 |

| Variant | enrichment ratio |
| --- | --- |
| SFFT | ≤ 0.25 |
| RRNK | ≤ 0.25 |
| YGRH | ≤ 0.25 |
| MWLI | ≤ 0.25 |
| PYTW | ≤ 0.25 |
| PYVA | ≤ 0.25 |
| DGPE | ≤ 0.25 |
| VWQW | ≤ 0.25 |
| LAAL | ≤ 0.25 |
| AKFY | ≤ 0.25 |
| MQGW | ≤ 0.25 |
| VDAW | ≤ 0.25 |
| FDKK | ≤ 0.25 |
| FSLP | ≤ 0.25 |
| RWKT | ≤ 0.25 |
| AMPL | ≤ 0.25 |
| IAPK | 10.1 |
| PTAM | ≤ 0.25 |
| GIPF | ≤ 0.25 |
| QQIQ | ≤ 0.25 |
| VKIA | ≤ 0.25 |
